Test results as given in publication PMC4336329 (PLoS ONE, 2015).
In all, about 310,000 compounds went through this assay and about 2,200 (0.71%) showed an effect of 50% or more. Effects have a minus sign here. The list shows a part of the results.

What follows are compounds tested against human ether-à-go-go-related gene (hERG) potassium channel (human, UniProt Q12809) (assay: primary screen, population patch clamp on CHO cells stably expressing hERG).
Sequence of human ether-à-go-go-related gene (hERG) potassium channel (Q12809 whole entry, looked up): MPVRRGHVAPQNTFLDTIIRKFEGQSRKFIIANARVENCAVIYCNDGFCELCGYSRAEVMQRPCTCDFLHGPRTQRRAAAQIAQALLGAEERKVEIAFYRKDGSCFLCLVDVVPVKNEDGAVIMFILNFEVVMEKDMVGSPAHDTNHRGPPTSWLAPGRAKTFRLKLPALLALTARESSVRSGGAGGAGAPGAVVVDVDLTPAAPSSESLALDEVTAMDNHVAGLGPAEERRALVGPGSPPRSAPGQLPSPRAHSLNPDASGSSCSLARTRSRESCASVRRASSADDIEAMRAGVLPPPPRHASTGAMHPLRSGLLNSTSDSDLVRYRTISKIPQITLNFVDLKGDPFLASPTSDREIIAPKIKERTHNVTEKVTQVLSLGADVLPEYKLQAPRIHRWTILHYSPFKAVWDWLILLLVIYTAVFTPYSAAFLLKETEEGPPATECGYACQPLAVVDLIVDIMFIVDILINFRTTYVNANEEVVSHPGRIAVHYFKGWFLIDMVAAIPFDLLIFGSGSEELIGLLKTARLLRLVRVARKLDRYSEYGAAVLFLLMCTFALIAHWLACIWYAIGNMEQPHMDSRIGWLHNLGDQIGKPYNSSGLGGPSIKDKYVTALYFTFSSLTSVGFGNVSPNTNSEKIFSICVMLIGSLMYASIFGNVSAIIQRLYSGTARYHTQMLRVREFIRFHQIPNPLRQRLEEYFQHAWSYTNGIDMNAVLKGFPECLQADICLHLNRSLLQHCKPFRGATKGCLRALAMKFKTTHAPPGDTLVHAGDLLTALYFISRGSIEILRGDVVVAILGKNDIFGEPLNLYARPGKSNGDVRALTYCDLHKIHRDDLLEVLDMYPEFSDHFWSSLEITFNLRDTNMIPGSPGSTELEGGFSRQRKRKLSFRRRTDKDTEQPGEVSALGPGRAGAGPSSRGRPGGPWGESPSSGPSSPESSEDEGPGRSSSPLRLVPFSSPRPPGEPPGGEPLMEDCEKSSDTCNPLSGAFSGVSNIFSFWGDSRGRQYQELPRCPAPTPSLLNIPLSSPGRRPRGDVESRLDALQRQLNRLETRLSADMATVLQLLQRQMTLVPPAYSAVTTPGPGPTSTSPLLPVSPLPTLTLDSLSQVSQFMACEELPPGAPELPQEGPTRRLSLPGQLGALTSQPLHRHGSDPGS

Compound | hERG current change (%, negative = inhibition) at 1uM [%]
CCN1CCN(CC(=O)Nc2ccc(OC(F)(F)F)cc2)CC1.Cl | -29.4
CC(C)c1ccc(/C=N/Nc2ccc(C(=O)O)cc2)cc1 | 2.29
C=CCOc1cccc(C2C(C(=O)c3ccco3)=C(O)C(=O)N2Cc2cccnc2)c1 (stereo not shown) | 11.8
CN1C(=O)C(O)(CC(=O)c2cccs2)c2ccccc21 (stereo not shown) | 11.4
COc1ccccc1C(=O)O/N=C(\N)c1ccccn1 | 15
COc1ccc(F)cc1S(=O)(=O)NCC(c1ccc2c(c1)OCO2)N1CCN(C)CC1 (stereo not shown) | -12.6
Cc1cc(N2CCOCC2)ccc1/C=C1/SC(=O)NC1=O | 5.26
CS(=O)(=O)c1ccc2nc(NC(=O)c3cc(-c4ccccc4)nn3-c3ccccc3)sc2c1 | 14.2
O=C(NCc1ccccc1Cl)C1CCN(S(=O)(=O)c2ccc(-n3cnnn3)cc2)CC1 | -3.01
CCOC(=O)c1cc(C(=O)c2cc(Cl)ccc2O)coc1=N | 9.5
Cc1ccccc1-n1c(=O)cc(N2CCCCCC2)[nH]c1=O | 4.68
O=C(O)CCC(=O)N1CCN(c2ccccn2)CC1 | 9.22
COc1cccc(-c2nc(NCCN3CCOCC3)c3ccccc3n2)c1O | -0.437
Cc1cc(C)c2nc(N3CCCC3)c(C#N)cc2c1 | -1.75
Cc1cccc(NC(=O)CS(=O)(=O)c2cn(C)c3ccccc23)c1 | 2.95
Cc1cc2occ(CC(=O)Nc3nccs3)c2cc1C(C)C | 6.91
Cc1ccc(S(=O)(=O)Nc2cccc(C(=O)NC3CCN(Cc4ccccc4)CC3)c2)cc1F | -27.4
Cc1oc(-c2cccs2)nc1CSCC(=O)N1CCC2(CC1)OCCO2 | 7.4
COc1ccc2[nH]c3c(c2c1)CN(C)CC3.Cl | 7.2
O=C(C1CCN(S(=O)(=O)c2ccc(-n3cnnn3)cc2)CC1)N1CCCCC1 | 3.7
COc1cc(OC)c(N(C)C(=O)c2cc3c(s2)-c2ccccc2S(=O)(=O)C3)cc1Cl | 12.5
CCCn1c(NCc2ccco2)nc2c1c(=O)n(C)c(=O)n2C | 2.05
CCC(C)NS(=O)(=O)c1ccc(OCC(=O)NCc2cccnc2)cc1 (stereo not shown) | 12.3

Compound | hERG current change (%, negative = inhibition) at 1uM [%]
Cc1onc(-c2ccccc2Cl)c1C(=O)NC(=S)NCC(=O)c1ccccc1 | 12.5
COC(=O)NNC(=O)COc1cc(C)c(Br)cc1C(C)C | 16.3
COc1ccc(NC(=O)CN2CCc3ccccc3C2)cc1OC | 10.8
Cc1ccc(Cc2c(C)nc3nc(SCC(=O)NCCCN4CCOCC4)nn3c2C)cc1 | 6.68
COc1ccccc1C(=O)Nc1ccccc1N1CCOCC1 | 1.38
CCNc1nc(Cl)nc(NCc2ccccc2)n1 | 8.19
Cc1cc(N2CCCCC2)ccc1C=C1C(=O)N(C)C(=S)N(C)C1=O | 16.1
Cc1cnc(C(=O)OC(C)C(=O)NC2CCCc3ccccc32)cn1 (stereo not shown) | 10.6
COc1ccc(-c2csc(NC(=O)c3ccc(OCC(=O)N4CCOCC4)c(OC)c3)n2)cc1 | -19.3
CCC(C)(C)NC(=O)C(c1sccc1C)N(Cc1ccco1)C(=O)c1csnn1 (stereo not shown) | 5.8
CN(C)c1ccc(/C=C/C(=O)c2cccnc2)cc1 | 6.82
Cc1ccc2nc(-c3ccc(NC(=O)COC(=O)c4ccco4)cc3)sc2c1 | 4.4
O=C(N/N=C/c1c[nH]c2ccccc12)c1cc(Cl)ccc1O | 11.3
Cc1nn(C(C)C)c(C)c1[C@@H]1C[C@H]2CN(Cc3cccc(Cl)c3)C(=O)[C@]23CCCN13 | -1.55
COC(=O)C[C@H]1c2cc(F)ccc2S(=O)(=O)N1C(C)C | 16.8
CCOc1ccc(NC(=S)NS(=O)(=O)c2cc(Br)ccc2OCC)cc1 | 16.6
CN1CCC2(CC1)NC(=O)C1=C(CN(C)CC1)N2 | 15.5
Cc1cc(SCC(=O)c2ccccc2)nc(SCC(=O)c2ccccc2)n1 | 10.5
COCCNc1nc(N)c([N+](=O)[O-])c(Nc2ccc(F)cc2)n1 | 10.8
FC(F)(F)COc1ccc(-n2ccnc2)nn1 | 7.05
Cc1sc2ncnc(N)c2c1C | 5.81
COc1cccc(CN(CC(=O)NC2CCCC2)C(=O)c2csnn2)c1 | 12.6
CC(=O)N/C(=C\c1ccccc1)C(=O)OCC(=O)NC1CCS(=O)(=O)C1 (stereo not shown) | -4.54

Compound | hERG current change (%, negative = inhibition) at 1uM [%]
Cc1ccc2c(n1)sc1c(N)ncnc12 | 15
CCOC(=O)N1CCN(CC(O)COc2ccc(CC)cc2)CC1.Cl (stereo not shown) | 0.0015
Cc1cccc(-c2nnc(SCC(=O)Nc3nc4c(s3)CCCC4)n2C)c1 | -2.41
Cc1ccc(/C(N)=N/OC(=O)N2c3ccccc3Sc3ccccc32)cc1 | 9.41
COCCN1CCN(Cc2nc(Cc3ccc(OC)c(OC)c3)no2)CC1 | 7.26
Cc1ccc(S(=O)(=O)N2CCC(=O)N(C(COCc3ccc(Cl)cc3)C(C)C)CC2)cc1 (stereo not shown) | -20.5
COc1ccc(CCNC(=O)COC(=O)c2ccccc2NCCO)cc1OC | 8.36
O=C(CS(=O)(=O)c1ccc(F)cc1)NCCS(=O)(=O)c1ccccc1 | 15.7
O=S(=O)(Nc1ccn(-c2ccccc2)n1)c1ccc(Br)cc1 | 16
COC(=O)c1ccc(N2CCN(C)CC2)c(NC(=O)c2sc3ccccc3c2Cl)c1 | 15.5
COC(=O)C1=C(c2ccc3ccccc3c2)C[C@@H]2CC[C@H]1N2C(=O)NCCNC(C)=O | 13.7
C=CCNC(=O)CCCc1ccccc1 | 1.79
Cc1cnc(C(=O)Nc2nnc(SCc3c(Cl)cccc3Cl)s2)cn1 | 4.29
C=C(C)CSc1cc(C)nc2c(-c3ccccc3)c(C)nn12 | 8.13
COc1cccc(NC(=S)N2CCn3c(nc4ccccc43)C2)c1 | -2.41
C=CCN1C(=O)/C(=C2/Sc3ccccc3N2CCCS(=O)(=O)O)SC1=S.c1ccncc1 | 5.03
CCS(=O)(=O)N1CCN=C1SCc1ccc(F)cc1 | 12.3
COc1ccc(CC2(CO)CCN(S(=O)(=O)c3c(C)nn(C)c3Cl)CC2)cc1 | 7.19
Cc1c(/C=N/NC(=O)C2(O)c3ccccc3-c3ccccc32)cnn1C | 14.8
Cc1ccc(-n2nnnc2SCC(=O)N2CCc3ccccc3C2)c(C)c1 | -7.25
Cc1ccc(N(C(=O)CS(=O)CC(=O)Nc2ccc(F)cc2)C(C)C(=O)NC(C)(C)C)cc1 (stereo not shown) | 13.9
Cc1ccc(C2CC(=O)c3cnn(-c4nc(C)cc(C)n4)c3C2)cc1 (stereo not shown) | 0.815
O=C(CSc1ccc2nnc(-c3ccncc3)n2n1)NCc1ccco1 | -7.28

Compound | hERG current change (%, negative = inhibition) at 1uM [%]
CCCc1nc(SCC(=O)Nc2ccc(N3CCOCC3)cc2)c2ccccc2n1 | -7.38
Cc1cc(CCC(=O)O)c(C)cc1CCC(=O)O | 3.69
CCC(CO)n1c(SCc2cc(=O)oc3cc(C)ccc23)nc2ccccc2c1=O (stereo not shown) | 14.1
O=c1[nH]c2ccsc2c(=O)n1CCO | 11.1
Cc1nnc(SCc2nnc(-c3cccs3)o2)n1C | 15
CC1CCCCN1Cc1cccnc1.O=C(O)C(=O)O (stereo not shown) | 13.8
COc1ccc(Cl)cc1NC(=O)NCc1ccco1 | 1.04
CN(C(=O)c1ccc(N2CCOCC2)c([N+](=O)[O-])c1)C1CCCCC1 | 7.37
COc1ccc(/C=N/NC(=O)Cc2csc(Nc3cccc(C(F)(F)F)c3)n2)c(OC)c1 | 8.25
COc1ccc(C(=O)Nc2ccc(C(F)(F)F)n(C)c2=O)cc1 | 2.71
C#CCCCCCCC#CCN(C)C.CC(=O)O | 16.3
Cc1c(-c2ccncc2)oc2ccc(Br)cc2c1=O | 8.33
Cc1noc(C)c1COC(=O)Cc1ccc(Cl)cc1 | 4.37
Cc1cccc(NC(=O)CN2CCN(C(=O)C(C)Oc3ccc(C#N)cc3)CC2)c1C (stereo not shown) | -54.7
CC(=O)Nc1nc(-c2ccc3c(c2)CCN3S(C)(=O)=O)cs1 | 9.83
Cn1cnnc1SCC(=O)Nc1nc(-c2ccccc2)cs1 | 2.11
CC(C)(C)C(=O)N1CCC[C@@]1(CO)C(=O)O | 11.3
O=C(CSc1nnc(-c2cc(-c3cccs3)nc3ccccc23)o1)NC1CCCCC1 | 10.3
Cc1cc(C(=O)OCC(=O)NCc2ccco2)c(C)o1 | 7.79
CC(=O)N1CC(=O)N(OCc2ccccc2)C1c1ccc(Cl)cc1Cl (stereo not shown) | 10.8
COc1cccc(/C=C/C(=O)OCC(=O)N2CCN(S(=O)(=O)c3ccc(Cl)cc3)CC2)c1 | 13.7
CCOc1ccc(-c2c(C(=O)N/N=C/c3cccs3)nnn2-c2nonc2N)cc1 | 8.15
